Experimental data reported in PubChem BioAssay AID588855 (National Center for Advancing Translational Sciences (NCATS), 2011).
Where “and” joins values, the source holds several entries; their conditions need not be identical. Equal entries are not always repeated. The campaign covered roughly 410,000 compounds. About 5,000 (1.2%) were called active. Inconclusive means that the source gave no clear call. Such entries were picked first, then a sample of the others. Calls follow the shape of the dose curve; as a rule, active = well fitted inhibition curve with a large enough effect; inconclusive = small, poorly fitted or top-dose-only effect; inactive = no such curve, though single readings can be large or run the other way. Potencies beside an inconclusive call are fits to weak or partial responses and may not hold up.

experiment: qHTS for Inhibitors of TGF-b; conditions: HepG2 CAGA-GFP TGF-b/SMAD3 reporter, GFP fluorescence, 18 h, TGF-beta stimulated, 500 pg/mL final; series mostly up to 46.1 µM; activity, negative = inhibition: at the top concentration; also: nearly all actives have a fitted effect of over 65% in size
Method in brief: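 Using HEPG2 CAGA-GFP reporter cells at 1000 cells/well, we pinned test compounds, stimulated with recombinant TGF-beta (500 pg/mL final) and measured total well GFP after 18 h.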
% is scaled to controls: 0 for no effect and ±100 for the full control effect; potency is read from the fitted curve at half-maximal effect; tags tell the direction and shape of the fitted curve.

Structure (SMILES) | Potency | activity, negative = inhibition
CC(C)(C)n1ncc2c(=O)n(Cc3c(Cl)cccc3Br)cnc21 | inconclusive: 35.5 µM [inhibitor, single point] | 
O=C(Nc1ccccc1)c1cccnc1NCCc1ccccc1 |  | inactive: 14.6%
Cc1ccc(OCCOCCN2CCN(C)CC2)c([N+](=O)[O-])c1 | inconclusive: 4.47 µM [inhibitor, partial curve] | 
O=C(CCc1ccccc1)OCC(=O)c1ccc(Br)cc1 |  | inactive: -11.2%
CCc1ccc(NC(=O)CCC(=O)N2CCSc3ccccc32)cc1 |  | inactive: 0.861%
CSc1nc2ccc(NC(=O)C3=NNC(=O)CC3)cc2s1 |  | inactive: -28%
COc1ccc(S(=O)(=O)N2CCN(C(=O)CSC(=S)N3CCCC3)CC2)cc1 | inconclusive: 25.1 µM [inhibitor, single point] | 
O=C(CSc1nc2sc3c(c2c(=O)[nH]1)CCCC3)Nc1ccccc1F |  | inactive: -5.49%
Cc1cccnc1Nc1nc(-c2ccc(F)cc2)cs1 | inconclusive: 20 µM [inhibitor, single point] | 
CN(Cc1cnn(C)c1)C(=O)C1CCC(=O)N(Cc2cccc(C(F)(F)F)c2)C1 (configuration not stated) | inconclusive: 6.31 µM [inhibitor, single point] | 
CC(C)Cn1c(-c2cc(Br)ccc2F)nc2c1c(=O)[nH]c(=O)n2CC(C)C | inconclusive: 22.4 µM [inhibitor, single point] | 
COc1ccc(-c2cc(C(F)F)n3ncc(C(=O)Nc4c(C)n(C)n(-c5ccccc5)c4=O)c3n2)cc1 |  | inactive: 5.89%
COc1ccc(-c2nc(Cn3c(SCc4ccc(F)cc4)nc4cccnc43)c(C)o2)cc1 | inconclusive: 17.8 µM [inhibitor, single point] | 
CCCCCCNC(=O)O[C@H]1C[C@H](C(=O)OC)[C@H](C(=O)OC)C2CN(S(=O)(=O)c3ccc(C)cc3)C[C@@]21O (some centres not stated) | inconclusive: 17.8 µM [inhibitor, partial curve, poor fit] | 
COC(=O)C1=C(C)Nc2[nH]c(=S)[nH]c(=O)c2C1c1ccc(OC)cc1 (configuration not stated) | inconclusive: 17.8 µM [inhibitor, single point] | 
CC/C=C/C(=O)N1CC2(CC(c3cccc(NC(=O)CC(c4ccccc4)c4ccccc4)c3)=NO2)C[C@@H]1C(N)=O (some centres not stated) | inconclusive: 3.55 µM [inhibitor, partial curve, poor fit] | 
CCCOc1ccc(NC(=O)CC2C(=O)N(Cc3ccccc3)C(=S)N2Cc2cccs2)cc1 (configuration not stated) | inconclusive: 35.5 µM [inhibitor, single point] | 
CN(c1ccccc1C(=O)N1CCCC1)S(C)(=O)=O | inconclusive: 0.794 µM [inhibitor, partial curve, poor fit] | 
COc1ccc([C@H]2CC(=O)C=C(c3ccc(SC)cc3)C2)cc1OC | inconclusive: 3.98 µM [inhibitor, full curve] | 
Cc1ccc([N+](=O)[O-])cc1S(=O)(=O)N1CCn2cccc2C1c1ccc(F)c(F)c1 (configuration not stated) | inconclusive: 35.5 µM [inhibitor, single point] | 
CN(C)c1ccc(CCc2ccnc3ccccc23)cc1 |  | inactive: 0.413%

Structure (SMILES) | Potency | activity, negative = inhibition
COc1ccccc1OCC(=O)Nn1c(=S)[nH]c2ncccc2c1=O | inconclusive: 1.41 µM [inhibitor, partial curve, poor fit] | 
N#CC1C=Cc2c(ccc3ccccc23)N1C(=O)c1ccccc1 (configuration not stated) | inconclusive: 12.6 µM [inhibitor, partial curve, poor fit] | 
Clc1ccccc1OCc1nnc(-c2ccccc2)o1 |  | inactive: -1.08%
CCCCNc1c(-c2ccc(-c3cccc(Cl)c3)cc2)nc2ccccn12 | inconclusive: 35.5 µM [inhibitor, single point] | 
CCCCC(=O)N(C)c1c(CC)nc2c(OCCC3CCCCC3)cccn12 | inconclusive: 35.5 µM [inhibitor, single point] | 
COc1ccc(-c2nc3c(C)cc(Br)cn3c2Cc2cccc(F)c2)cc1OC | inconclusive: 35.5 µM [inhibitor, single point] | 
O=C(/C=C/c1ccccc1F)c1ccoc1 | inconclusive: 35.5 µM [inhibitor, single point] | 
CN(C)/C=N/c1nc(-c2ccc3ccccc3c2)cs1 |  | inactive: 0%
CC(=O)c1ccc(N2CCN(C(=O)c3ccc(C(=O)c4ccccc4)cc3)CC2)cc1 | inconclusive: 31.6 µM [inhibitor, partial curve, poor fit] | 
Cc1ccc(S(=O)(=O)Nc2c(C)cc([N+](=O)[O-])cc2C)cc1 |  | inactive: -24.1%
Cc1cc(Cl)ccc1OCC(=O)Nc1cccc(S(=O)(=O)NC2=NCCCCC2)c1 | inconclusive: 22.4 µM [inhibitor, single point] | 
O=C(NCc1ccco1)c1nnc(Cc2ccc(Cl)cc2)o1 | inconclusive: 0.562 µM [inhibitor, full curve, poor fit] | 
CC(C)CCNC(=O)C(=O)NC1CCCC1 |  | inactive: -6.57%
Clc1ccc(Nc2nc(-c3ccccc3)c3cc(Cl)ccc3n2)cc1 |  | inactive: 20.3%
CC1=C(C(=O)OCc2ccccc2)C(/C=C/c2ccccc2)NC(=S)N1 (configuration not stated) | inconclusive: 35.5 µM [inhibitor, single point] | 
O=C(COC(=O)CC(c1ccccc1)c1ccccc1)Nc1cccc(F)c1 | inconclusive: 3.16 µM [inhibitor, single point] | 
Cc1ccc2onc(CC(=O)N3CCN(c4cccc(C)c4C)CC3)c2c1 | inconclusive: 14.1 µM [inhibitor, single point] | 
C[C@@H](NC(=O)c1nc[nH]c1C(=O)OCc1ccccc1)c1ccccc1 | inconclusive: 35.5 µM [inhibitor, single point] | 
Cc1cc(C)n(-c2nc(SCC(=O)Nc3nccs3)c3c4c(sc3n2)COC(C)(C)C4)n1 | inconclusive: 3.55 µM [inhibitor, single point] | 
N#C/C(=C\c1ccc(C(=O)O)cc1)c1ccccn1 | inconclusive: 25.1 µM [inhibitor, single point] | 
COc1ccc(/C=C/C(=O)c2ccc(O)cc2)cc1CN1CCOCC1 | inconclusive: 17.8 µM [inhibitor, single point] | 

Structure (SMILES) | Potency | activity, negative = inhibition
CC[C@]12c3[nH]c4cc(-c5ccco5)ccc4c3CCN1C(=O)[C@@H](CC(=O)NCC13CC4CC(CC(C4)C1)C3)C[C@@H]2C(=O)N1CCN(C(=O)c2ccco2)CC1 | active: 12.6 µM | 
COc1ccc(SC[C@H](Cc2ccccc2)N2CC[C@@H](C)CCC2=O)cc1 | inconclusive: 10 µM [inhibitor, partial curve] and inconclusive: 31.6 µM [inhibitor, single point] | 
N#Cc1nc(COc2ccc(Br)cc2)oc1N1CCN(Cc2ccccc2)CC1 |  | inactive: 22.4%
CC(=O)N1CCc2cc(Br)cc(S(=O)(=O)CCC(=O)NCCc3ccc(Cl)cc3)c21 | inconclusive: 12.6 µM [inhibitor, single point] | 
CN1C(=O)CSC1=NCC12CC3CC(CC(C3)C1)C2 | inconclusive: 6.31 µM [inhibitor, single point] | 
O=C(O)CC1S/C(=N/N=C2CCCCC2)N(c2ccccc2)C1=O (configuration not stated) | inconclusive: 35.5 µM [inhibitor, partial curve, poor fit] | 
COc1ccc(CC(=O)NCCc2sc(-c3cccc(F)c3)nc2C)cc1 |  | inactive: -27.1%
CCCCOc1ccc(C(=O)N(Cc2nc(-c3ccc(Cl)cc3)no2)C(C)C)cc1 | inconclusive: 35.5 µM [inhibitor, single point] | 
CCOC(=O)c1ccc(NC(=O)c2nc[nH]c2C(=O)N[C@@H](CC(C)C)C(=O)OCc2ccccc2)cc1 | inconclusive: 12.6 µM [inhibitor, partial curve, poor fit] | 
Cn1c(=O)oc2cc(S(=O)(=O)N3CCC(C(=O)N4CCN(c5cccc(Cl)c5)CC4)CC3)ccc21 | inconclusive: 10 µM [inhibitor, partial curve, poor fit] | 
CCOc1cc(/C=C2/C(=O)N(c3ccccc3)N=C2C)ccc1OC(=O)c1ccco1 |  | inactive: -7%
CCOC(=O)c1c(C)[nH]c(C)c1C(=O)COC(=O)[C@@H](NC(=O)c1ccccc1OCC)C(C)C | inconclusive: 35.5 µM [inhibitor, single point] | 
CCOc1ccc(CCNC(=O)c2ccc(CS(=O)Cc3ccc(Cl)cc3)o2)cc1 (configuration not stated) | inconclusive: 35.5 µM [inhibitor, partial curve, poor fit] | 
Cc1ccc(-n2c(-c3ccccc3)c[n+]3c2CCc2ccccc2-3)c(C)c1 | inconclusive: 15.8 µM [inhibitor, partial curve, poor fit] | 
COc1ccc(NS(=O)(=O)c2ccc(C)c(C(=O)N3CCN(Cc4cc(OC)ccc4OC)CC3)c2)cc1 |  | inactive: 2.22%
CCCCOc1cccc(C2(C(=O)O)CCCC2)c1 | inconclusive: 2 µM [inhibitor, partial curve, poor fit] | 
Cc1cc(C)n(CC(O)COc2cccc(OCC(O)Cn3nc(C)cc3C)c2)n1 (configuration not stated) | inconclusive: 10 µM [inhibitor, partial curve] | 
O=C(Nc1nc2ccccc2s1)C1CCN(S(=O)(=O)c2cc([N+](=O)[O-])ccc2Cl)CC1 | inconclusive: 35.5 µM [inhibitor, single point] | 
COc1ccc(Cl)cc1NC(=O)Cn1cc(S(=O)(=O)Cc2cccc(Cl)c2)c2ccccc21 | inconclusive: 0.447 µM [inhibitor, full curve, poor fit] | 
COc1ccc(S(=O)(=O)Nc2ccc3c(c2)C(=O)N([C@H](C)CO)C[C@H](C)[C@@H](CN(C)C(=O)NC2CCCCC2)O3)cc1 | inconclusive: 7.94 µM [inhibitor, partial curve] | 
